# Some of the results follow.
# How the values were obtained:
# Assay in all cases: glycan array binding signal (z-score within array); higher = stronger binding
# Settings in all cases: glycan notation: IUPAC condensed, linker removed
# Neu5Ac(a2-6)Gal(b1-4)Glc = molecular target: Neu5Ac(a2-6)Gal(b1-4)Glc
# Procedure, shortened: (§1)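 Arrays were curated from the Consortium for Functional Glycomics database, 3228 in total, and kept only where the protein sequence was available. Binding is expressed as a within-array Z-score. This score was averaged across arrays of the same protein sequence at different concentrations or buffers and across linkers, and negative values can be read as non-binding.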
# [1] = molecular target: Neu5Ac(a2-6)Gal(b1-4)GlcNAc
# Procedure, shortened: as §1
# [2] = molecular target: Neu5Ac(a2-6)Gal(b1-4)GlcNAc(b1-2)Man
# Procedure, shortened: as §1
# [3] = molecular target: Neu5Ac(a2-6)Gal(b1-4)GlcNAc(b1-2)Man(a1-3)Man(b1-4)GlcNAc(b1-4)GlcNAc
# Procedure, shortened: as §1
# [4] = molecular target: Neu5Ac(a2-6)Gal(b1-4)GlcNAc(b1-2)Man(a1-3)[Gal(b1-4)GlcNAc(b1-2)Man(a1-6)]Man(b1-4)GlcNAc(b1-4)GlcNAc
# Procedure, shortened: as §1
# [5] = molecular target: Neu5Ac(a2-6)Gal(b1-4)GlcNAc(b1-2)Man(a1-3)[GlcNAc(b1-2)Man(a1-6)]Man(b1-4)GlcNAc(b1-4)GlcNAc
# Procedure, shortened: as §1
# [6] = molecular target: Neu5Ac(a2-6)Gal(b1-4)GlcNAc(b1-2)Man(a1-3)[GlcNAc(b1-4)][Neu5Ac(a2-6)Gal(b1-4)GlcNAc(b1-2)Man(a1-6)]Man(b1-4)GlcNAc(b1-4)GlcNAc
# Procedure, shortened: as §1
# [7] = molecular target: Neu5Ac(a2-6)Gal(b1-4)GlcNAc(b1-2)Man(a1-3)[Man(a1-6)]Man(b1-4)GlcNAc(b1-4)GlcNAc
# Procedure, shortened: as §1
# [8] = molecular target: Neu5Ac(a2-6)Gal(b1-4)GlcNAc(b1-2)Man(a1-3)[Neu5Ac(a2-3)Gal(b1-4)GlcNAc(b1-2)Man(a1-6)]Man(b1-4)GlcNAc(b1-4)GlcNAc
# Procedure, shortened: as §1
# [9] = molecular target: Neu5Ac(a2-6)Gal(b1-4)GlcNAc(b1-2)Man(a1-3)[Neu5Ac(a2-6)Gal(b1-4)GlcNAc(b1-2)Man(a1-6)]Man(b1-4)GlcNAc(b1-4)GlcNAc
# Procedure, shortened: as §1
# [10] = molecular target: Neu5Ac(a2-6)Gal(b1-4)GlcNAc(b1-2)Man(a1-3)[Neu5Ac(a2-6)Gal(b1-4)GlcNAc(b1-2)Man(a1-6)]Man(b1-4)GlcNAc(b1-4)[Fuc(a1-6)]GlcNAc
# Procedure, shortened: as §1
# [11] = molecular target: Neu5Ac(a2-6)Gal(b1-4)GlcNAc(b1-2)Man(a1-6)Man(b1-4)GlcNAc(b1-4)GlcNAc
# Procedure, shortened: as §1
# [12] = molecular target: Neu5Ac(a2-6)Gal(b1-4)GlcNAc(b1-2)Man(a1-6)[Gal(b1-4)GlcNAc(b1-2)Man(a1-3)]Man(b1-4)GlcNAc(b1-4)GlcNAc
# Procedure, shortened: as §1
# [13] = molecular target: Neu5Ac(a2-6)Gal(b1-4)GlcNAc(b1-2)Man(a1-6)[GlcNAc(b1-2)Man(a1-3)]Man(b1-4)GlcNAc(b1-4)GlcNAc
# Procedure, shortened: as §1
# [14] = molecular target: Neu5Ac(a2-6)Gal(b1-4)GlcNAc(b1-2)Man(a1-6)[Man(a1-3)]Man(b1-4)GlcNAc(b1-4)GlcNAc
# Procedure, shortened: as §1
# [15] = molecular target: Neu5Ac(a2-6)Gal(b1-4)GlcNAc(b1-2)[Neu5Ac(a2-6)Gal(b1-4)GlcNAc(b1-4)]Man(a1-3)[GlcNAc(b1-4)][Neu5Ac(a2-6)Gal(b1-4)GlcNAc(b1-2)[Neu5Ac(a2-6)Gal(b1-4)GlcNAc(b1-6)]Man(a1-6)]Man(b1-4)GlcNAc(b1-4)GlcNAc
# Procedure, shortened: as §1
# [16] = molecular target: Neu5Ac(a2-6)Gal(b1-4)GlcNAc(b1-2)[Neu5Ac(a2-6)Gal(b1-4)GlcNAc(b1-4)]Man(a1-3)[GlcNAc(b1-4)][Neu5Ac(a2-6)Gal(b1-4)GlcNAc(b1-4)Man(a1-6)]Man(b1-4)GlcNAc(b1-4)GlcNAc
# Procedure, shortened: as §1
# [17] = molecular target: Neu5Ac(a2-6)Gal(b1-4)GlcNAc(b1-2)[Neu5Ac(a2-6)Gal(b1-4)GlcNAc(b1-6)]Man(a1-6)[Neu5Ac(a2-6)Gal(b1-4)GlcNAc(b1-2)Man(a1-3)][GlcNAc(b1-4)]Man(b1-4)GlcNAc(b1-4)GlcNAc
# Procedure, shortened: as §1
# [18] = molecular target: Neu5Ac(a2-6)Gal(b1-4)GlcNAc(b1-3)Gal(b1-3)GlcNAc
# Procedure, shortened: as §1
# [19] = molecular target: Neu5Ac(a2-6)Gal(b1-4)GlcNAc(b1-3)Gal(b1-4)GlcNAc
# Procedure, shortened: as §1
# [20] = molecular target: Neu5Ac(a2-6)Gal(b1-4)GlcNAc(b1-3)Gal(b1-4)GlcNAc(b1-2)Man(a1-3)[Neu5Ac(a2-6)Gal(b1-4)GlcNAc(b1-3)Gal(b1-4)GlcNAc(b1-2)Man(a1-6)]GalNAc
# Procedure, shortened: as §1
# [21] = molecular target: Neu5Ac(a2-6)Gal(b1-4)GlcNAc(b1-3)Gal(b1-4)GlcNAc(b1-3)Gal(b1-4)GlcNAc
# Procedure, shortened: as §1
# [22] = molecular target: Neu5Ac(a2-6)Gal(b1-4)GlcNAc(b1-3)Gal(b1-4)GlcNAc(b1-3)Gal(b1-4)GlcNAc(b1-2)Man(a1-3)[Neu5Ac(a2-6)Gal(b1-4)GlcNAc(b1-3)Gal(b1-4)GlcNAc(b1-3)Gal(b1-4)GlcNAc(b1-2)Man(a1-6)]GalNAc
# Procedure, shortened: as §1
binder,measurement,setting,value
Cohesin-mDC-ASGPR (Macaca mulatta) (protein) LDITSHHHHHHDDLDAVRIKVDTVNAKPGDTVRIPVRFSGIPSKGIANCDFVYSYDPNVLEIIEIEPGDIIVDPNPDKSFDTAVYPDRKIIVFLFAEDSGTGAYAITKDGVFATIVAKVKEGAPNGLSVIKFVEVGGFANNDLVEQKTQFFDGGVNVGDTTEPATPTTPVTTPTTTDDLDAASSQNSKFQRDLVTLRTDFSNFTSNTVAEIQALTSQGSSVEEMIASLKAEVEVIKQEQQAVHSEMLLRVQRLMQDLNKLTCQVATLKNNASTERTCCPVNWVEHQDSCYWFSRSGMPWAEAEKHCQLENAHLVVINSREEQNFVQEHLSFAYTWMGLSDREGAWKWVDGTDYETGFQNWKPGQPDDWQGHGLGGGEDCAHFHPDGRWNDDVCQRPYYWVCEAGLTQASQESH,glycan array binding signal (z-score),Neu5Ac(a2-6)Gal(b1-4)Glc,-0.396
same,glycan array binding signal (z-score),[1],-0.389
same,glycan array binding signal (z-score),[2],-0.389
same,glycan array binding signal (z-score),[3],-0.43
same,glycan array binding signal (z-score),[4],-0.422
same,glycan array binding signal (z-score),[5],-0.435
same,glycan array binding signal (z-score),[6],-0.414
same,glycan array binding signal (z-score),[7],-0.427
same,glycan array binding signal (z-score),[8],-0.43
same,glycan array binding signal (z-score),[9],-0.424
same,glycan array binding signal (z-score),[10],-0.432
same,glycan array binding signal (z-score),[11],-0.435
same,glycan array binding signal (z-score),[12],-0.436
same,glycan array binding signal (z-score),[13],-0.423
same,glycan array binding signal (z-score),[14],-0.435
same,glycan array binding signal (z-score),[15],-0.401
same,glycan array binding signal (z-score),[16],-0.376
same,glycan array binding signal (z-score),[17],-0.423
same,glycan array binding signal (z-score),[18],-0.412
same,glycan array binding signal (z-score),[19],-0.418
same,glycan array binding signal (z-score),[20],-0.323
same,glycan array binding signal (z-score),[21],-0.423
same,glycan array binding signal (z-score),[22],-0.235

# — the supplement of paper PMC8728848
